Measured values taken from PubChem BioAssay AID485290 (National Center for Advancing Translational Sciences (NCATS), 2010).
Among all 350,000 compounds or so, about 990 (0.28%) were called active. The shares of active, inactive and inconclusive entries below differ from those in the screen. Calls follow the shape of the dose curve; as a rule, active = well fitted inhibition curve with a large enough effect; inconclusive = small, poorly fitted or top-dose-only effect; inactive = no such curve, though single readings can be large or run the other way. Potencies of inconclusive entries are doubtful fits and often do not repeat. A structure can be active in one record and inactive in another.

molecular target: Tyrosyl-DNA phosphodiesterase 1 (Homo sapiens) (UniProt Q9NUW8); assay: qHTS Assay for Inhibitors of Tyrosyl-DNA Phosphodiesterase (TDP1); conditions: recombinant TDP1, AlphaScreen DNA substrate cleavage; series mostly up to 130 µM; also: nearly all actives have a fitted effect of over 40% in size
UniProt Q9NUW8, sequence (Q9NUW8 whole entry, looked up): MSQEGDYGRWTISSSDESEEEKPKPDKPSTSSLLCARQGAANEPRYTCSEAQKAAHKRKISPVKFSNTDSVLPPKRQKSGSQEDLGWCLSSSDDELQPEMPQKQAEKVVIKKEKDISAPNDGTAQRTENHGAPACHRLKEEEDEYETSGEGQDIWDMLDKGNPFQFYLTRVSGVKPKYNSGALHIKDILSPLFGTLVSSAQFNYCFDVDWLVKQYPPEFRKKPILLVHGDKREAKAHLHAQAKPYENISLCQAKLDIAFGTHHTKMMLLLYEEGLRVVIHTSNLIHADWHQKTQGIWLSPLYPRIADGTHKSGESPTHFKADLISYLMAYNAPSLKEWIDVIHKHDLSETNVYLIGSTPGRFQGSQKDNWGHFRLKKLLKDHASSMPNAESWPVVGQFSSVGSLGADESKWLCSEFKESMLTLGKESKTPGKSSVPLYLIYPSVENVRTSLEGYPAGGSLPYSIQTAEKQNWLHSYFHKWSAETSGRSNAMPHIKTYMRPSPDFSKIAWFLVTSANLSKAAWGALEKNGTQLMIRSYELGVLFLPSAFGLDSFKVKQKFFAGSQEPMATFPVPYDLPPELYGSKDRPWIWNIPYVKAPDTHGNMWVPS
Procedure, shortened: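 Signal: AlphaScreen proximity between streptavidin donor and anti-FITC acceptor beads on intact substrate. Reaction: Tdp1 1 nM, substrate 15 nM final, 5 min RT after 15 min compound preincubation.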
Potency is read from the fitted curve at half-maximal effect; tags tell the direction and shape of the fitted curve.

Potency, inconclusive:
Cc1cc(=O)[nH]c(N/N=C/c2c[nH]c3ccccc23)n1 89.1 µM [inhibitor, single point]
Cc1nc2sccn2c(=O)c1Br 10 µM [inhibitor, partial curve]
O=C(NCc1ccc2c(c1)OCO2)C1CC(=O)N(c2ccc(Cl)cc2)C1 (stereo not given) 39.8 µM [inhibitor, single point]
Cn1c(SCC(=O)N2CCOCC2)nc(O)cc1=O 31.6 µM [inhibitor, partial curve, poor fit]
COC(=O)CSc1nc(C2CC2)cc(C(F)(F)F)c1C#N 12.6 µM [inhibitor, partial curve, poor fit]
CC1(C)CC2CC(C)(CN2C(=O)c2ccc([N+](=O)[O-])cc2)C1 (stereo not given) 50.1 µM [inhibitor, partial curve, poor fit]
COc1cccc(-c2csc3nnc(SCC(=O)c4ccc(NC(C)=O)cc4)n23)c1 79.4 µM [inhibitor, single point]
C=CC[C@@H]1C=C[C@@H](O/N=C2/[C@H]3O[C@@H]3[C@@H](O)[C@H]3[C@H]2CCn2c(=O)n(-c4ccccc4)c(=O)n23)[C@@H](CO)O1 1.41 µM [inhibitor, single point]
O=C(CNC1CCCCC1)N1CCc2ccccc2C1 44.7 µM [inhibitor, single point]
OCC1OC([S-])[C@H](O)C(O)C1O.[Au+] (stereo not given in full) 2.82 µM [inhibitor, full curve]
Cc1ccccc1-c1noc(-c2cccs2)n1 35.5 µM [inhibitor, single point]
O=C(N/N=C/c1cccc([N+](=O)[O-])c1)c1cc2c(ccc3ccccc32)o1 39.8 µM [inhibitor, partial curve]
COc1cccc(=O)c2c(C)n(-c3ccc(C(=O)O)cc3)c(C)c12 35.5 µM [inhibitor, partial curve]
O=C(COC(=O)Cc1ccc(S(=O)(=O)N2CCOCC2)s1)Nc1ccc([N+](=O)[O-])cc1 56.2 µM [inhibitor, partial curve]
CCC(C)NCCOc1ccccc1C (stereo not given) 44.7 µM [inhibitor, partial curve, poor fit]
c1ccc(-c2ccccc2OCCOCCN2CCNCC2)cc1 39.8 µM [inhibitor, single point]
COC(=O)c1cccc(NC(=O)CSc2nc(C)cc(=O)[nH]2)c1 28.2 µM [inhibitor, single point]
Cc1ccncc1C(N)=O 0.1 µM [inhibitor, full curve]
CN(CC(=O)Nc1ccc(Cl)cc1)C(=O)c1ccc(S(=O)(=O)Nc2ccccc2)cc1 89.1 µM [inhibitor, single point]
COc1ccccc1-c1nccc(-n2ccnc2)n1 7.08 µM [inhibitor, partial curve]
CCCCCCC(=O)Oc1cccc(N2C(=O)C3CCCCC3C2=O)c1 (stereo not given) 70.8 µM [inhibitor, single point]

Potency, active:
NC(=O)c1ccc2nc(NC(=O)c3ccc(N)cc3)sc2c1 79.4 µM
Cc1cccc(C(=O)Nc2ccc(N3CCC(CCN4CCOCC4)CC3)c(C(=O)O)c2)c1 25.1 µM
C/C(=N\NC(=O)c1ccccc1O)c1ccc(NC(=O)Cc2ccccc2)cc1 56.2 µM
Cc1ccc(C(=O)O)cc1-c1ccc(/C=C2\SC(=O)N(CC(=O)Nc3ccccc3)C2=O)o1 39.8 µM
CCCCCc1nnc(NC(=O)Cc2cccs2)s1 35.5 µM
N#C/C(=C\c1ccc(OCc2ccc(F)cc2)cc1)C(=O)Nc1cccc(C(=O)O)c1 44.7 µM
COc1cc2cc(Oc3ccc4ccc(=O)oc4c3)c(=O)oc2cc1O[C@@H]1O[C@H](CO)[C@@H](O)[C@H](O)[C@H]1O 25.1 µM
O=C(CSc1nnc2ccccn12)NC(=O)c1ccccc1Cl 25.1 µM
COc1ccc(CN2C(=O)c3cccc4cccc2c34)cc1F 50.1 µM
COc1ccc(S(=O)(=O)NCc2cccs2)cc1 22.4 µM
Cc1ccc(/C=C2/C(=O)c3ccc(C(=O)O)cc3C2=O)o1 3.55 µM
Nc1c(C(=O)Nc2ccc(Br)cc2)sc2nc(-c3ccncc3)ccc12 22.4 µM
O=C(O)c1cc2cc(F)ccc2[nH]1 89.1 µM
Cn1c(SCC(=O)Nc2ccc3nc(SCC(=O)N4CCCC4)sc3c2)nnc1-c1ccccc1 50.1 µM
COc1ccc(NC(=O)c2cc(-c3ccco3)nc3ccccc23)cn1 14.1 µM
O=C(N/N=C/c1ccsc1)c1cc2ccccc2o1 79.4 µM
CC[n+]1ccc(C[n+]2ccccc2)c2ccccc21 22.4 µM

Potency, inactive:
O=C(CSc1nc2[nH]c(=O)cc(O)c2s1)NCCc1ccccc1
COCCn1c(N)c(C(=O)NCC2CCCO2)c2nc3ccccc3nc21 (stereo not given)
C=C(Br)Cn1c(CC(C)C)nc2ccccc21
COC(=O)c1ccc(NC(=O)CCn2cccn2)cc1
COc1cc(/C=C/C(=O)OCN2C(=O)c3ccccc3C2=O)ccc1OC(F)F
CCCC[C@@H]1CNC(=O)C(=O)N1CC(C)(C)C
Cc1ccc(OCCNC(=O)CNC(=O)Cc2cccc3ccccc23)cc1
CCCCCCCCCCSc1n[nH]c(NC(C)=O)n1
CCN1CCN(c2ccc(S(=O)(=O)N3CCOCC3)cc2NC(=O)C(C)Oc2ccc(Cl)cc2)CC1 (stereo not given)
Cc1c([N+](=O)[O-])cc(S(=O)(=O)Nc2ccncc2)cc1[N+](=O)[O-]
O=C(NCCCn1ccnc1)C(=O)NCC1OCCN1S(=O)(=O)c1ccc(F)cc1 (stereo not given)
O=C(Cn1ccc2cc(S(=O)(=O)N3CCCC3)ccc21)NCCc1ccccc1
